Reference: the supplement of paper PMC4604168 (melanoma cell lines)
The list shows a part of the results. Repeats are few or missing, and single values can be far off.

Experiments:
Test in all cases: cell count relative to DMSO control; melanoma cells; higher = more viable cells
Conditions in all cases: library dose: standard library concentration; 72 h
G361 = system: G361
IPC-298 = system: IPC-298
IST-MEL1 = system: IST-MEL1
LB2518-MEL = system: LB2518-MEL
LOXIMVI = system: LOXIMVI
MEL-HO = system: MEL-HO
MZ2-MEL = system: MZ2-MEL
MeWo = system: MeWo
RPMI7951 = system: RPMI7951
RVH-421 = system: RVH-421
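Also: cells treated in 1,536-well plates, then fixed and DAPI-stained, with nuclei counted from automated high-throughput microscope images.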

SMILES | cell count (G361) [%] | cell count (IPC-298) [%] | cell count (IST-MEL1) [%] | cell count (LB2518-MEL) [%] | cell count (LOXIMVI) [%] | cell count (MEL-HO) [%] | cell count (MZ2-MEL) [%] | cell count (MeWo) [%] | cell count (RPMI7951) [%] | cell count (RVH-421) [%]
Cc1nc(Nc2ncc(C(=O)Nc3c(C)cccc3Cl)s2)cc(N2CCN(CCO)CC2)n1 [dasatanib] + Cn1cncc1[C@@](N)(c1ccc(Cl)cc1)c1ccc2c(c1)c(-c1cccc(Cl)c1)cc(=O)n2C [tipifarnib] (first compound 0.02 µM, partner dose 0.05 µM) | 56.9 | 91.3 | 31.4 | 67.8 | 12 | 70.3 | 64 | 79.5 | 29.7 | 48.9
C[C@]1(c2nc3c(C(N)=O)cccc3[nH]2)CCCN1 [Veliparib] + COc1cc2c(Oc3ccc4[nH]c(C)cc4c3F)ncnc2cc1OCCCN1CCCC1 [cediranib] (first compound 7 µM, partner dose 2 µM) | 74.9 | 94 | 60.7 | – | 64.5 | 78.6 | – | 71.8 | 75.3 | 69.7
OCCn1cc(-c2cnc3nnn(Cc4ccc5ncccc5c4)c3n2)cn1 + O=S(=O)(c1ccccc1)N(CC(F)(F)F)c1ccc(C(O)(C(F)(F)F)C(F)(F)F)cc1 [T0901317] (first compound 5 µM, partner dose 7 µM) | 74.2 | 81.9 | 98.3 | 141 | 101 | 85.6 | 101 | 98.3 | 121 | 106
Cc1nc(Nc2ncc(C(=O)Nc3c(C)cccc3Cl)s2)cc(N2CCN(CCO)CC2)n1 [dasatanib] + CN(C)S(=O)(=O)c1ccc2c(c1)/C(=C/c1cc3c([nH]1)CCCC3)C(=O)N2 [SU6656] (first compound 0.02 µM, partner dose 2 µM) | 40.1 | 82.4 | 52.6 | – | 21.4 | 67.7 | – | 61.6 | 36 | 58.8
OCCn1cc(-c2cnc3nnn(Cc4ccc5ncccc5c4)c3n2)cn1 + Cn1cc(/C=C2\C(=O)Nc3cccnc32)c2ccccc21 [GW441756] (first compound 5 µM, partner dose 2 µM) | 101 | 76 | 112 | 105 | 126 | 94.1 | 95 | 97.6 | 113 | 106
C[C@]1(c2nc3c(C(N)=O)cccc3[nH]2)CCCN1 [Veliparib] + O=c1cc(-c2cccc3c2Sc2ccccc2S3)oc(N2CCOCC2)c1 [KU55933] (first compound 7 µM, partner dose 5 µM) | 83 | 94.2 | 107 | – | 94.2 | 83.4 | – | 76.9 | 92.3 | 73.7
C[C@]1(c2nc3c(C(N)=O)cccc3[nH]2)CCCN1 [Veliparib] + COc1cc2ncnc(Nc3ccc(Oc4ccccc4)cc3)c2cc1OC [SrcI1] (first compound 7 µM, partner dose 10 µM) | 53.9 | 95.8 | 74.1 | 97.4 | 192 | 94.9 | 82.6 | 89.4 | 26.5 | 99
C=CCn1c(=O)c2cnc(Nc3ccc(N4CCN(C)CC4)cc3)nc2n1-c1cccc(C(C)(C)O)n1 + OCCn1cc(-c2cnc3nnn(Cc4ccc5ncccc5c4)c3n2)cn1 [PF04217903] (first compound 0.1 µM, partner dose 5 µM) | 79.1 | 81.7 | 81.2 | – | 96.6 | 95.2 | – | 81.4 | 56 | 91.2
NCC(=O)Nc1ccc(-n2nc(C(F)(F)F)cc2-c2ccc3c(ccc4ccccc43)c2)cc1 + COc1cc(N2CCC(N3CCN(C)CC3)CC2)ccc1Nc1ncc(Cl)c(Nc2ccccc2S(=O)(=O)C(C)C)n1 [NVP-TAE684] (first compound 5 µM, partner dose 0.4 µM) | 74.2 | 66.1 | 87.3 | – | 84.9 | 93 | – | 54.6 | 80.3 | 79.1
Cc1nc(Nc2ncc(C(=O)Nc3c(C)cccc3Cl)s2)cc(N2CCN(CCO)CC2)n1 [dasatanib] + Cn1cc(/C=C2\C(=O)Nc3cccnc32)c2ccccc21 [GW441756] (first compound 0.02 µM, partner dose 2 µM) | 77.4 | 79.2 | 75.3 | – | 28 | 79.7 | – | 91.6 | 35.2 | 84.7
NC(=O)Nc1cc(-c2cccc(F)c2)sc1C(=O)N[C@H]1CCCNC1 + COc1cc(N2CCC(N3CCN(C)CC3)CC2)ccc1Nc1ncc(Cl)c(Nc2ccccc2S(=O)(=O)C(C)C)n1 [NVP-TAE684] (first compound 0.1 µM, partner dose 0.4 µM) | 93.1 | 84.6 | 111 | 75.2 | 71.5 | 80.2 | 94.8 | 69.6 | 36.2 | 91
NC(=O)Nc1cc(-c2cccc(F)c2)sc1C(=O)N[C@H]1CCCNC1 + COc1cc2ncnc(Nc3ccc(Oc4ccccc4)cc3)c2cc1OC [SrcI1] (first compound 0.1 µM, partner dose 10 µM) | 62.9 | 60.9 | 72.6 | 66.4 | 54.2 | 69.7 | 58.7 | 55.7 | 24.4 | 115
C=CCn1c(=O)c2cnc(Nc3ccc(N4CCN(C)CC4)cc3)nc2n1-c1cccc(C(C)(C)O)n1 + O=C(Nc1cccc(Cl)c1)Nc1ncc(CCNc2ncnc3ccsc23)s1 [SNS314] (first compound 0.1 µM, partner dose 0.004 µM) | 78.6 | 79 | 54.2 | 57.7 | 66.7 | 76.2 | 82.2 | 43.4 | 44.2 | 73.9
CN(C)S(=O)(=O)c1ccc2c(c1)/C(=C/c1cc3c([nH]1)CCCC3)C(=O)N2 + CC(C)CCN1c2nc(Nc3cc(F)c(O)c(F)c3)ncc2N(C)C(=O)C1C [BID1870] (first compound 2 µM, partner dose 1 µM) | 50.4 | 68.2 | 76 | – | 119 | 67.2 | – | 75.6 | 50.3 | 69.4
OCCn1cc(-c2cnc3nnn(Cc4ccc5ncccc5c4)c3n2)cn1 + CCN(CC)CCCCNc1ncc2cc(-c3cc(OC)cc(OC)c3)c(NC(=O)NC(C)(C)C)nc2n1 [PD173074] (first compound 5 µM, partner dose 0.5 µM) | 109 | 95.3 | 93.6 | – | 93.7 | 85.2 | – | 84.9 | 71.4 | 92.9
OCCn1cc(-c2cnc3nnn(Cc4ccc5ncccc5c4)c3n2)cn1 + CCCCCCCCCCCC1=C(O)C(=O)C=C(O)C1=O [Embelin] (first compound 5 µM, partner dose 6 µM) | 87.9 | 102 | 69.7 | 96.8 | 286 | 71.7 | 91 | 113 | 95.9 | 98.8
CO[C@@H]1[C@H](N(C)C(=O)c2ccccc2)C[C@H]2O[C@]1(C)n1c3ccccc3c3c4c(c5c6ccccc6n2c5c31)C(=O)NC4 [Midostaurin] + COc1ccc(-c2ccc3c(N4CCOCC4)nc(N4C[C@@H](C)O[C@@H](C)C4)nc3n2)cc1CO [KU0063794] (first compound 0.4 µM, partner dose 0.1 µM) | 36.8 | 38.5 | 79.9 | 41.9 | 37.4 | 58.4 | 37.8 | 60.3 | 31.8 | 52
Cc1nc(Nc2ncc(C(=O)Nc3c(C)cccc3Cl)s2)cc(N2CCN(CCO)CC2)n1 [dasatanib] + O=C(Nc1ccccc1)c1cc([N+](=O)[O-])ccc1Cl [GW9662] (first compound 0.02 µM, partner dose 10 µM) | 74.9 | 85.8 | 71.3 | 82 | 275 | 69.6 | 44 | 75.2 | 35.6 | 61.7
CO[C@@H]1[C@H](N(C)C(=O)c2ccccc2)C[C@H]2O[C@]1(C)n1c3ccccc3c3c4c(c5c6ccccc6n2c5c31)C(=O)NC4 [Midostaurin] + C[C@@H]1CCN(C(=O)CC#N)C[C@@H]1N(C)c1ncnc2[nH]ccc12 [CP690550] (first compound 0.4 µM, partner dose 5 µM) | 39.9 | 48.7 | 59.7 | 57.1 | 39.4 | 68 | 46.4 | 72.4 | 27.3 | 73.8
NCC(=O)Nc1ccc(-n2nc(C(F)(F)F)cc2-c2ccc3c(ccc4ccccc43)c2)cc1 + O=c1cc(-c2cccc3c2Sc2ccccc2S3)oc(N2CCOCC2)c1 [KU55933] (first compound 5 µM, partner dose 5 µM) | 57.3 | 50.3 | 85.1 | 91.2 | 43.3 | 65.4 | 69 | 80.1 | 78.6 | 81.3
